pIC50: −log10 of the molar value. By IC50 is meant the dose at which the fit gives 50% viability; fits outside the tested doses are given as limits. The AUC spans the tested range (256-fold, ending at the top dose) of the same fit; values near 1 show little effect. For some assays here: The top dose, if marked as inferred, is not printed in the source and was worked back from the curve model.
What was measured:
Assay in all cases: Viability of human cancer cell lines after 72 h of drug (GDSC screen)
OSI-027 = compound: COc1cccc2cc(-c3nc([C@H]4CC[C@H](C(=O)O)CC4)n4ncnc(N)c34)[nH]c12 [OSI-027]; settings: top dose 20 µM
Procedure: (§1)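 Human cancer cell lines in 384-well plates, medium with 10% serum, drug for 72 h over a 256-fold dose range (nine 2-fold or five 4-fold steps up to the top dose). Adherent lines were fixed and stained with the nucleic acid dye Syto60, suspension lines read with resazurin; signal relative to control wells, capped at 0 and 100%. One two-parameter sigmoid per drug and line, fitted in a mixed model over all curves with the slope shared within a line.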

Vismodegib = compound: CS(=O)(=O)c1ccc(C(=O)Nc2ccc(Cl)c(-c3ccccn3)c2)c(Cl)c1 [Vismodegib]; settings: top dose 10 µM; top dose inferred
Procedure: as §1

UNC1215 = compound: O=C(c1ccc(C(=O)N2CCC(N3CCCC3)CC2)c(Nc2ccccc2)c1)N1CCC(N2CCCC2)CC1 [UNC1215]; settings: top dose 1 µM; top dose inferred
Procedure: as §1

TG101348 = compound: Cc1cnc(Nc2ccc(OCCN3CCCC3)cc2)nc1Nc1cccc(S(=O)(=O)NC(C)(C)C)c1 [TG101348]; settings: top dose 10.24 µM
Procedure: as §1

BMX-IN-1 (QL-XII-61) = compound: C=CC(=O)Nc1cc(-n2c(=O)ccc3cnc4ccc(-c5ccc(NS(C)(=O)=O)cc5)cc4c32)ccc1C [BMX-IN-1 (QL-XII-61)]; settings: top dose 10 µM; top dose inferred
Procedure: as §1

Doxorubicin = compound: COc1cccc2c1C(=O)c1c(O)c3c(c(O)c1C2=O)C[C@@](O)(C(=O)CO)C[C@@H]3O[C@H]1C[C@H](N)[C@H](O)[C@H](C)O1 [Doxorubicin]; settings: top dose 1.024 µM
Procedure: as §1

VX-11e = compound: Cc1cnc(Nc2ccc(F)cc2Cl)nc1-c1c[nH]c(C(=O)N[C@H](CO)c2cccc(Cl)c2)c1 [VX-11e]; settings: top dose 5.12 µM; top dose inferred
Procedure: as §1

BIX02189 = compound: CN(C)Cc1cccc(N=C(c2ccccc2)c2c(O)[nH]c3cc(C(=O)N(C)C)ccc23)c1 [BIX02189]; settings: top dose 20 µM; top dose inferred
Procedure: as §1

CCT018159 = compound: CCc1cc(-c2n[nH]c(C)c2-c2ccc3c(c2)OCCO3)c(O)cc1O [CCT018159]; settings: top dose 10 µM; top dose inferred
Procedure: as §1

Dimethyloxalylglycine = compound: COC(=O)CNC(=O)C(=O)OC [Dimethyloxalylglycine]; settings: top dose 4000 µM; top dose inferred
Procedure: as §1

17-AAG = compound: C=CCNC1=C2C[C@@H](C)C[C@H](OC)[C@H](O)[C@@H](C)/C=C(\C)[C@H](OC(N)=O)[C@@H](OC)/C=C\C=C(/C)C(=O)NC(=CC1=O)C2=O [17-AAG]; settings: top dose 1 µM
Procedure: as §1

Cell Line	AUC (OSI-027)	pIC50 (OSI-027)	AUC (Vismodegib)	pIC50 (Vismodegib)	AUC (UNC1215)	pIC50 (UNC1215)	AUC (TG101348)	pIC50 (TG101348)	AUC (BMX-IN-1 (QL-XII-61))	pIC50 (BMX-IN-1 (QL-XII-61))	AUC (Doxorubicin)	pIC50 (Doxorubicin)	AUC (VX-11e)	pIC50 (VX-11e)	AUC (BIX02189)	pIC50 (BIX02189)	AUC (CCT018159)	pIC50 (CCT018159)	AUC (Dimethyloxalylglycine)	pIC50 (Dimethyloxalylglycine)	AUC (17-AAG)	pIC50 (17-AAG)
EW-11 (Ewing sarcoma, adherent)	0.21	6.88	0.923	< 5.00	0.974	< 6.00	0.592	5.91	0.978	< 5.00	0.727	6.46	0.98	< 5.29	0.881	< 4.70	0.812	5.13	0.693	2.99	0.976	< 6.00
NCI-H2110 (non-small cell lung carcinoma, adherent)	0.722	5.27	0.973	< 5.00	0.985	< 6.00	0.887	< 4.99	0.892	< 5.00	0.198	8.10	0.71	5.89	0.823	4.92	0.959	< 5.00	0.383	3.93	0.533	7.11
LK-2 (lung squamous cell carcinoma, adherent)	0.633	5.55	0.989	< 5.00	0.987	< 6.00	0.866	5.08	0.988	< 5.00	0.813	6.29	0.958	< 5.29	0.927	< 4.70	0.947	< 5.00	0.747	2.92	0.692	6.68
HT-1197 (bladder, adherent)	0.855	< 4.70	0.985	< 5.00	0.983	< 6.00	0.959	< 4.99	0.982	< 5.00	0.692	6.61	0.96	< 5.29	0.977	< 4.70	0.887	< 5.00	0.534	–	0.877	< 6.00
HCC1428 (breast, adherent)	0.757	5.12	0.988	< 5.00	0.985	< 6.00	0.924	< 4.99	0.978	< 5.00	0.859	6.01	0.987	< 5.29	0.977	< 4.70	0.932	< 5.00	0.958	< 2.40	0.85	6.06
NCI-H1876 (small cell lung carcinoma, adherent)	0.249	6.63	0.986	< 5.00	0.957	< 6.00	0.851	5.10	0.806	5.29	0.624	6.85	0.952	< 5.29	0.972	< 4.70	0.98	< 5.00	0.739	2.91	0.987	< 6.00
SW1783 (glioma, adherent)	0.809	5.04	0.991	< 5.00	0.989	< 6.00	0.991	< 4.99	0.99	< 5.00	0.579	6.99	0.991	< 5.29	0.991	< 4.70	0.891	5.01	0.418	3.82	0.769	–
EW-1 (Ewing sarcoma, semi-adherent)	0.151	6.93	0.985	< 5.00	0.987	< 6.00	0.503	6.19	0.972	< 5.00	0.502	7.19	0.917	< 5.29	0.884	4.73	0.978	< 5.00	0.742	2.94	0.98	< 6.00
Hs683 (glioma, adherent)	0.663	5.45	0.979	< 5.00	0.987	< 6.00	0.904	< 4.99	0.987	< 5.00	0.616	6.87	0.982	< 5.29	0.979	< 4.70	0.949	< 5.00	0.576	3.39	0.461	7.31
TK (B-cell lymphoma, suspension)	0.198	6.75	0.988	< 5.00	0.98	< 6.00	0.791	5.38	0.902	< 5.00	0.749	6.51	0.984	< 5.29	0.934	< 4.70	0.932	< 5.00	0.244	4.30	0.981	< 6.00
K2 (melanoma, adherent)	0.627	5.51	0.982	< 5.00	0.97	< 6.00	0.975	< 4.99	0.863	< 5.00	0.703	6.55	0.765	5.61	0.977	< 4.70	0.982	< 5.00	0.648	3.14	0.799	6.19
NCI-H1688 (small cell lung carcinoma, adherent)	0.875	< 4.70	0.986	< 5.00	0.983	< 6.00	0.883	< 4.99	0.985	< 5.00	0.788	6.30	0.974	< 5.29	0.819	4.89	0.948	< 5.00	0.662	3.13	0.941	< 6.00
KINGS-1 (glioma, adherent)	0.767	4.99	0.97	< 5.00	0.977	< 6.00	0.874	< 4.99	0.955	< 5.00	0.835	< 5.99	0.95	< 5.29	0.956	< 4.70	0.914	< 5.00	0.626	3.20	0.691	6.58
NCI-H650 (lung adenocarcinoma, adherent)	0.426	6.12	0.982	< 5.00	0.985	< 6.00	0.86	5.00	0.984	< 5.00	0.684	6.65	0.96	< 5.29	0.955	< 4.70	0.867	< 5.00	0.802	2.66	0.656	6.75
TUR (B-cell lymphoma, suspension)	0.216	6.70	0.965	< 5.00	0.985	< 6.00	0.555	6.05	0.797	5.36	0.559	7.04	0.893	< 5.29	0.894	< 4.70	0.808	5.33	0.437	–	0.494	7.22
PANC-02-03 (pancreas, adherent)	0.893	< 4.70	0.982	< 5.00	0.981	< 6.00	0.885	< 4.99	0.962	< 5.00	0.747	6.41	0.661	6.01	0.839	4.75	0.869	< 5.00	0.483	3.65	0.484	7.25
OVKATE (ovary, adherent)	0.837	< 4.70	0.979	< 5.00	0.977	< 6.00	0.862	< 4.99	0.972	< 5.00	0.914	< 5.99	0.826	< 5.29	0.817	< 4.70	0.961	< 5.00	0.653	3.05	0.855	< 6.00
OCI-AML5 (acute myeloid leukaemia, suspension)	0.184	6.80	0.986	< 5.00	0.988	< 6.00	0.433	6.37	0.943	< 5.00	0.55	7.06	0.79	5.69	0.842	4.91	0.959	< 5.00	0.244	4.31	0.926	< 6.00
NCI-H1155 (large cell lung carcinoma, suspension)	0.869	4.88	0.971	< 5.00	0.993	< 6.00	0.952	< 4.99	0.993	< 5.00	0.854	6.23	0.983	< 5.29	0.976	< 4.70	0.878	5.15	0.8	–	0.725	6.63
A498 (kidney, adherent)	0.807	4.76	0.977	< 5.00	0.976	< 6.00	0.863	< 4.99	0.968	< 5.00	0.931	< 5.99	0.975	< 5.29	0.971	< 4.70	0.949	< 5.00	0.64	3.13	0.589	6.91
SW1271 (small cell lung carcinoma, adherent)	0.508	5.88	0.984	< 5.00	0.982	< 6.00	0.753	5.41	0.982	< 5.00	0.492	7.22	0.68	5.95	0.736	5.18	0.948	< 5.00	0.397	3.90	0.964	< 6.00
